The campaign covered roughly 310,000 compounds. About 2,200 (0.71%) showed an effect of 50% or more. The effect is printed as a negative number. This is one part of the list.
Biological target: human ether-à-go-go-related gene (hERG) potassium channel (human, UniProt Q12809)
Assay: primary screen, population patch clamp on CHO cells stably expressing hERG

human ether-à-go-go-related gene (hERG) potassium channel, sequence (Q12809 whole entry, looked up): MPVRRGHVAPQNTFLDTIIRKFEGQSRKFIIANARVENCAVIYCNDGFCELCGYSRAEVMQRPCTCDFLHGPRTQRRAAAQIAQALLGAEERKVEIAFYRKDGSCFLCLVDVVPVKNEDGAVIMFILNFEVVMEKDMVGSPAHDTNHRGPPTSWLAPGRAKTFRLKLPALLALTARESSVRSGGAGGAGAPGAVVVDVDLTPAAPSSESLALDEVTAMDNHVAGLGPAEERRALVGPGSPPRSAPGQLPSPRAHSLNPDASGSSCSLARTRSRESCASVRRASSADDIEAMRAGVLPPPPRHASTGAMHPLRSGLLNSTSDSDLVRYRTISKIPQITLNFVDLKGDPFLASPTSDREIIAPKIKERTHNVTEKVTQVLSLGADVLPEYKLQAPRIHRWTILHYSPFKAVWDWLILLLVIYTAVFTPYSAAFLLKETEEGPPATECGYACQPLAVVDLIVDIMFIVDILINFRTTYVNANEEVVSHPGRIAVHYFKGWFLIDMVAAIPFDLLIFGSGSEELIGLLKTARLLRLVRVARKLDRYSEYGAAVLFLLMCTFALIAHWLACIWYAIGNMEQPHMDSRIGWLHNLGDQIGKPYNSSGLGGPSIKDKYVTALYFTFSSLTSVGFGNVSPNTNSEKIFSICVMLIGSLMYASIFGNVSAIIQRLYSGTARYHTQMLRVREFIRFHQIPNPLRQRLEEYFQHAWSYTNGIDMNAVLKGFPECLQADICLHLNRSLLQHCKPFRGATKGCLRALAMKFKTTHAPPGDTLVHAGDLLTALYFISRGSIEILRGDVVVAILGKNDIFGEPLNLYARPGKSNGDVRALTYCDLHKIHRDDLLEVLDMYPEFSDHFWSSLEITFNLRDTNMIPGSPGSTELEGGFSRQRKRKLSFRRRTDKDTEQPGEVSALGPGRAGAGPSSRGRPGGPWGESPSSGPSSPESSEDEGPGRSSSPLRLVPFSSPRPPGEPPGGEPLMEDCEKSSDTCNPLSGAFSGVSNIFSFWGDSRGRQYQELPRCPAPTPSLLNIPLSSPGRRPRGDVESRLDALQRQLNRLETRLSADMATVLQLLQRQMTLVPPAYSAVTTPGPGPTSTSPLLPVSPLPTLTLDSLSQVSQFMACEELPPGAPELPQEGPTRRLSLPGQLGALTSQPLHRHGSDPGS

Structure (SMILES)	hERG current change (%, negative = inhibition) at 1uM [%]
CC(C)NC(=O)COC(=O)c1ccccc1C(=O)c1ccccc1	10.9
CCSc1nc(-c2cccs2)nc2ccccc12	1.52
CC(C)Oc1ccc(CCNC(=O)C2CCC(=O)N(Cc3cccc(F)c3)C2)cc1 (stereo not shown)	-1.31
Cc1nn(C)c(C)c1CN(C)C(=O)c1nn2c(c1Br)NC(c1cccs1)CC2C(F)(F)F (stereo not shown)	5.33
COc1ccc(NC(=O)/C(=C\c2ccco2)NC(=O)c2ccco2)cc1	9.91
NC(=S)N/N=C/c1ccc(-c2ccc(SC(F)F)cc2)o1	14.7
CC(C)N(C(=O)CSc1nc2ccccc2n1Cc1ccccc1F)C(C)C	8.46
COc1ccc(OC)c(NC(=O)NC2CCCCCCC2)c1	9.24
COc1ccc(N2C(=O)C3CCCN3C2c2cccs2)cc1 (stereo not shown)	12.7
Nc1cc(=O)[nH]c(SCC(=O)NCC2CCCO2)n1 (stereo not shown)	8.23
Cc1cccc(C)c1OCc1cc(C(=O)N2CC3C[C@@H]4CC2C[C@H](C3)C4)no1	8.42
C[N+]1(C)C2CC[C@H]1CC(OC(=O)C(CO)c1ccccc1)C2.O=[N+]([O-])O (stereo partly shown)	4.7
Cc1cc(Cl)ccc1OCC(=O)OC(C)C(=O)NC(N)=O (stereo not shown)	4.91
CCCCCc1c(C)nc(N2CCN(Cc3ccc4c(c3)OCO4)CC2)[nH]c1=O	-1.95
CNCc1c(OCc2ccccc2)ccc2ccccc12.Cl	-0.938
CC(C)(C)C1CCc2sc(-c3nnc(CCl)o3)cc2C1 (stereo not shown)	16.8
O=C(Nc1cnccn1)c1cccnc1	4.49
Cc1cccc(C(=O)NNC(=O)c2ccc(Br)cc2)c1	5.03
COc1ccccc1N1CCN(C(=O)c2cc(=O)c3c(C)cc(C)cc3o2)CC1	21.3
CC(C)[C@@H](C(=O)NCC1CCC(C(=O)O)CC1)n1nnc2ccccc2c1=O (stereo partly shown)	12.9
Cc1ccn2cc(CSc3ccccc3N)nc2c1	-9.77
CCOC(=O)c1ccc(NC(=O)COc2ccc(S(=O)(=O)NC(C)C)cc2)cc1	12.5

Structure (SMILES)	hERG current change (%, negative = inhibition) at 1uM [%]
COc1cc(CN2CCN(C(=O)CC(C)C)CC2)cc(OC)c1OC	-0.807
COc1ccccc1OCC(=O)Nc1ccc2c(c1)C(=O)N(CC1CCCO1)C2=O (stereo not shown)	3.21
COc1ccc(N2CCN(C(=O)CCc3ccccc3OC)CC2)cc1	7.73
CCN(CC)C(=O)CSc1nc2cccnc2n1-c1ccccc1OC	11.5
Cc1ccccc1-c1nc(CS(=O)CC(=O)NCc2ccccc2)c(C)o1 (stereo not shown)	2.19
COc1cc(/C=N\NC(C)=O)ccc1OC/C=C/c1ccccc1	13.9
O=C(NC1CC1)C1=C[C@@H](c2coc3ccccc3c2=O)C[C@@H](OCCCCO)O1	9.99
N#Cc1c(-c2cccs2)nc(SCC(=O)c2cccs2)[nH]c1=O	-2.12
CCCCn1c(N)c(N(CC(C)C)C(=O)C2CCN(C(=O)c3ccc(F)cc3)CC2)c(=O)[nH]c1=O	0.272
COC(CNS(=O)(=O)c1ccc(S(=O)(=O)N2CCCC2)cc1)OC	-5.61
CCS(=O)(=O)NCc1csc(C)n1	8.06
O=C(CN(c1ccccc1F)S(=O)(=O)c1ccccc1)Nc1ccc2c(c1)OCCO2	15.2
CCCCn1c(SCC(=O)Nc2cc(C)on2)nnc1-c1ccncc1	9.23
CCc1cc2cc(C)c(C)cc2nc1SCC(=O)Nc1cc(C)on1	9.93
COc1ccc(NC(C)=O)cc1NC(=O)c1cccc(S(=O)(=O)N2CCN(Cc3ccccc3)CC2)c1	7.45
O=C(NCCc1ccccc1)c1ccc(NC2=NC3CS(=O)(=O)CC3S2)cc1 (stereo not shown)	5.56
O=C(Nc1ccnn1C1CCN(Cc2cccc(OCCO)c2)CC1)c1cccc(F)c1	9.06
CN(C)c1cc[n+](CC(=O)Nc2ccccc2C(F)(F)F)cc1.[Cl-]	11.6
O=C1CCCN1CCCNC(=S)Nc1ccc(F)c(Cl)c1	5.52
CN(C)c1cccc(C(=O)N(Cc2ccccc2)Cc2ccccc2)c1	8.83
COc1ccc(NC(=O)CC2C(=O)N(c3cccc(OC)c3)C(=O)N2Cc2ccco2)cc1 (stereo not shown)	-4.4
CCN1C(=NCc2ccc(OC)cc2)N[C@@H](CCc2ccccc2)[C@H](C(=O)NCc2ccc(OC)cc2)[C@H]1C	-16.8

Structure (SMILES)	hERG current change (%, negative = inhibition) at 1uM [%]
CSc1ccc(CNc2ccc(C)cc2)cc1	12.8
CNC(=O)N(O)C1N(C)C(=O)N(Cc2ccccc2)C1(C)C (stereo not shown)	3.57
C/C(=N\NC(=O)c1cccs1)c1cccnc1	5.86
COc1cccc(-c2cc(C(=O)N/N=C/c3ccco3)c3ccccc3n2)c1	14
O=c1ccc2ccc(O[C@@H]3O[C@H](CO[C@@H]4OC[C@](O)(CO)[C@H]4O)[C@@H](O)[C@H](O)[C@H]3O)cc2o1	15.2
Cc1cc(/C=C2/NC(=S)NC2=O)c(C)n1-c1cccnc1	15.2
COCCNC(=S)N/N=C(\C)c1ccccc1OC	9.12
O=C(c1cccc([N+](=O)[O-])c1)N1CCN(c2n[nH]c(=O)[nH]c2=O)CC1	7.2
C[C@@H]1C[C@H](O)c2cc(Cl)ccc2N1	-1.49
COc1ccc(-c2cn[nH]c2-c2ccc(OCc3ccc([N+](=O)[O-])cc3)cc2O)cc1OC	2.71
Cc1ccc(NC(=O)CC2S/C(=N/N=C3\CCCc4ccccc43)NC2=O)cc1 (stereo not shown)	15.7
COc1ccc(-c2nn(-c3ccccc3)cc2/C=N/NC(=O)c2ccc3c(c2)OCO3)cc1	8.21
O=C(COC(=O)C1CCN(S(=O)(=O)c2cccs2)CC1)c1ccc2c(c1)OCCO2	13.7
Cc1n[nH]c(=O)nc1NCC1CCCO1 (stereo not shown)	-15.9
COc1ccc(NC(=O)Nc2cc(F)ccc2C)cc1	21.5
CN(C(=O)COC(=O)c1ccc(Cl)nc1)C1CCS(=O)(=O)C1 (stereo not shown)	3.72
Cc1cccnc1CN1CCN(C(=O)c2cc(COc3ccc4ncccc4c3)on2)CC1	16.1
O=C(CN(CCO)c1ccccc1)Nc1ccc(Cl)c(S(=O)(=O)N2CCOCC2)c1	5.98
COc1cc(C2Nc3cccc4cccc(c34)N2)ccc1OC(C)=O	15
NNC(=O)CCC(=O)Nc1ccccc1	11.1
COc1ccc(C(=O)Nc2cc(C)nn2-c2nc3ccccc3[nH]2)c(OC)c1	5.37
O=C(NNC(=S)NC(=O)c1cccnc1)c1ccc(F)cc1	12.6

Structure (SMILES)	hERG current change (%, negative = inhibition) at 1uM [%]
O=Cc1cccn1-c1c(C(=O)O)cnn1-c1ccccc1	27.8
COc1cccc2c(=O)n(CC(=O)Nc3ccc(F)cc3F)ccc12	8.04
CCOC(=O)N=Nc1c(O)n(CC)c2ccccc12	8.82
Cc1cc2c(c(SCC(=O)N(C)c3ccccc3)n1)C(=O)OC2	14.6
CSc1nnc(-c2ccccc2)o1	-2.44
CSCC[C@H](NC(=O)C1CCC(CNC(=O)[C@@H]2CCCN2)CC1)C(=O)O.Cl (stereo partly shown)	3.34
COc1ccc(C(=O)NNC2CC(=O)N(Cc3ccccc3)C2=O)cc1OC (stereo not shown)	1.56
COc1ccc(CCN(C)C(=O)c2c(C)nn(-c3ccccc3)c2C)cc1OC	13.9
Cc1nnc(C)n1/N=C/c1ccccn1	-14.6
COc1ccccc1CNC(=O)COC(=O)c1cc(=O)[nH]c2ccccc12	4.78
CC(=O)c1c(C)nc(-c2ccc(OCC(=O)Nc3ccccc3)cc2)n1O	19.2
C=CCn1c(SCC(=O)N2CCOCC2)nc(O)c(Cc2ccccc2)c1=O	11.8
O=C(CSc1nnc(COc2ccc(Cl)cc2)o1)OC1CCCCC1	0.966
Cc1ccc(OCC(=O)N2CCCCCC2)c(C)c1	8.22
COc1ccc(N2CCN(C(CNS(=O)(=O)c3cc(F)ccc3F)c3cccnc3)CC2)cc1 (stereo not shown)	-18.7
O=C(NCc1ccco1)c1cc(S(=O)(=O)N2CCOCC2)ccc1Cl	-14.1
O=C(NCc1ccccn1)c1ccc(NC(=O)c2ccco2)cc1	0.77
CSc1ccc(CN2CCN(C3CCCC3)C(CCO)C2)cc1 (stereo not shown)	-8.56
COc1ccc(CCNc2ccc(S(=O)(=O)N3CCCC3)cc2[N+](=O)[O-])cc1	8.04
Cc1nc(C(=O)NNC(=O)c2ccc(C(F)(F)F)cc2)cs1	13.1
CC(C)CC(=O)NNC(=S)Nc1ccc(S(N)(=O)=O)cc1	16.1
CC(C)(Sc1cc(C(C)(C)C)c(O)c(C(C)(C)C)c1)Sc1cc(C(C)(C)C)c(O)c(C(C)(C)C)c1	18.8

Source: publication PMC4336329 (PLoS ONE, 2015)
